Measured values from PubChem BioAssay AID1745853 (National Center for Advancing Translational Sciences (NCATS), 2022).
Values joined by “and” are separate entries in the source; they are usually repeats but may differ in a detail not shown here. Equal values may be shown once. The list shows a part of the results. The main result of the screen is listed elsewhere. These columns were measured beside it and carry no call.

Experiments:
Experiment in all cases: Primary Screen for Target Class Profiling of Small Molecule Inhibitors of Methyltransferases
[1] = molecular target: Glycine N-methyltransferase (Homo sapiens) (UniProt Q14749); details: purified enzyme, MTase-Glo SAH luminescence; measured here: GNMT inhibition; at 40 µM; stronger effect = lower value
Procedure, shortened: (§1)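 Each enzyme was reacted with SAM and its substrate, with compounds tested once at 40 uM; SAH formed was read by MTase-Glo luminescence.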

[2] = molecular target: Guanidinoacetate N-methyltransferase (Homo sapiens) (UniProt Q14353); details: purified enzyme, MTase-Glo SAH luminescence; measured here: GAMT inhibition; at 40 µM; stronger effect = lower value
Procedure, shortened: as §1

[3] = molecular target: Histamine N-methyltransferase (Homo sapiens) (UniProt P50135); details: purified enzyme, MTase-Glo SAH luminescence; measured here: HNMT inhibition; at 40 µM; stronger effect = lower value
Procedure, shortened: as §1

[4] = molecular target: Nicotinamide N-methyltransferase (Homo sapiens) (UniProt P40261); details: purified enzyme, MTase-Glo SAH luminescence; measured here: NNMT inhibition; at 40 µM; stronger effect = lower value
Procedure, shortened: as §1

[5] = molecular target: Phenylethanolamine N-methyltransferase (Homo sapiens) (UniProt P11086); details: purified enzyme, MTase-Glo SAH luminescence; measured here: PNMT inhibition; at 40 µM; stronger effect = lower value
Procedure, shortened: as §1
% is set by controls: 0 for no effect and ±100 for the full control effect.

Structure (SMILES)	activity change, negative = inhibition [1]	activity change, negative = inhibition [2]	activity change, negative = inhibition [3]	activity change, negative = inhibition [4]	activity change, negative = inhibition [5]
COc1cccc(Cn2nc3n(CC(C)C)c(=O)c4ccccc4n3c2=O)c1	-5.59%	0%	1.38%	-3.17%	-1.45%
CCN1CCCN(S(=O)(=O)c2cccs2)CC12CCOCC2	-5.77%	-6.24%	-2.28%	-9.74%	7.71%
CCCN1C(=O)c2c(C(=O)NCCc3ccccc3Cl)ncn2CC1(C)C(=O)NC1CCCC1 (stereo not given)	-0.888%	0.767%	7.01%	3.19%	9.57%
COc1ccc(NC(=O)N2CC(N(C3CCOCC3)S(C)(=O)=O)C2)cc1F	-2.74%	-4.59%	-0.784%	-5.03%	-5.53%
CCCn1c(=O)c2cc(Cl)ccc2n2c(SCC(=O)Nc3ccccc3OC)nnc12	-7.5%	-11.5%	8.16%	-14.1%	-5.91%
Cc1cc(C)n(CCc2nc3c4ccccc4nc(N4CCN(c5cccc(C)c5C)CC4)n3n2)n1		5.62%		-3.89%	7.33%
CCOC(=O)c1cc2n(n1)CC(C)(C(=O)NC1CCCC1)N(Cc1cccc(F)c1)C2=O (stereo not given)	2.89%	-0.252%	8.92%	-0.118%	1.75%
COCC1CN(Cc2ccc(Br)s2)CC12CCNCC2 (stereo not given)	-4.38%	-3.05%	-11%	-1.54%	6.67%
CC(C)C1=CCC(C)(O)C(OC2OC(CO)C(O)C(O)C2O)C1 (stereo not given)	0%	5.78%	9.81%	-6.68%	5.09%
COc1ccccc1CNC(=O)C1c2c(n(C)c3ccccc23)SCC(=O)N1c1ccc(OC)c(OC)c1 (stereo not given)	11.4%	2.23%	7.77%	4.37%	9.3%
CC(C)Oc1ccc(-c2cnc3c(-c4ccnc5ccccc45)cnn3c2)cc1	-11.3%	-1.18%	9.64%	-19.3%	-2.76%
CCn1nc(C)c(-c2cc(C(=O)N3CCC(CCOc4ccccc4OC)C3)no2)c1C (stereo not given)	-13.1%	-8.58%	-9.27%	-16%	-0.415%
O=C(CCn1ccc2cc(S(=O)(=O)N3CCCC3)ccc21)NCCc1ccc(Cl)cc1	0.551%	0%	5.98%	-0.9%	1.59%
c1ccc2c(CCNc3ccc(Nc4ccncc4)cc3)c[nH]c2c1	-7.83%	4.73%	-92.4%	-32.2%	-6.89%
CNC(=O)[C@@H]1CN(S(=O)(=O)C(C)C)C[C@H]1c1n[nH]c(C)n1	0.916%	2.02%	1.56%	-2.11%	2.87%
COc1ccc(Cl)cc1NC(=O)CSc1nnc2n(CCC(C)C)c(=O)c3ccccc3n12	0.306%	1.61%	4.97%	-8.71%	-1.14%
Cc1ccc(N2C(=O)CSc3c(c4ccccc4n3C)C2C(=O)NCc2ccccc2)cc1C (stereo not given)	5.83%	1.24%	-1.88%	-1.07%	0.411%
COc1ccccc1CN1C(=O)c2nc3ccccc3n2CC1(C)C(=O)NC1CCCCC1 (stereo not given)	1.42%	4.23%	-0.498%	-2.76%	-2.25%
COc1cccc(CN2C(=O)c3cc4sccc4n3CC2(C)C(=O)NC2CCCC2)c1OC (stereo not given)	-6.13%	5.42%	-6.05%	-4.64%	-3.23%
NCCCCCC(=O)O	4.46%	-5.59%	7.19%	-10.3%	-5.18%

Structure (SMILES)	activity change, negative = inhibition [1]	activity change, negative = inhibition [2]	activity change, negative = inhibition [3]	activity change, negative = inhibition [4]	activity change, negative = inhibition [5]
CC(C)OCCCn1c(=O)c2ccccc2n2c(CCC(=O)NC(C)c3ccccc3)nnc12 (stereo not given)	0.666%	0%	2.97%	12.6%	1.71%
CC(C)CCNC(=O)[C@H](CC(C)C)NC(=O)[C@H]1O[C@@H]1C(=O)O	-1.86%	-8.3%	8.59%	-12.4%	1.17%
Cc1ncsc1C(=O)N1CC(CNC(=O)C2CC2)C2(C1)CN(c1ccccc1)C2 (stereo not given)	-4.29%	-0.584%	1.76%	-3.32%	1.71%
CC1(C(=O)NC2CCCCCC2)Cn2c(ccc2-c2ccccc2)C(=O)N1Cc1ccc(F)cc1 (stereo not given)	3.88%	3.34%	0.137%	-4.86%	-0.852%
O=C(Cn1ncc2c1-c1ccccc1OC2)N1CCN(c2ccccc2)CC1		-2.26%		-9.01%	0.901%
O=c1c2ccccc2n2c(-c3ccc(F)cc3)nnc2n1Cc1ccccc1	-3.28%	3.65%	-4.65%	-0.735%	-4.9%
COc1ccc2c(Oc3ccc(NC(=O)c4c(C)n(CC(C)(C)O)n(-c5ccccc5)c4=O)nc3)ccnc2c1	-10.9%	-5.65%	-29.7%	-43.9%	-2.38%
Cc1cc(C(C)Nc2ccccc2C(=O)O)c2nc(N3CCOCC3)cc(=O)n2c1 (stereo not given)	-5.79%	-4.02%	6.92%	-17.1%	0.433%
Cc1ccc(S(=O)(=O)c2nnn3c2nc(NCCCOC(C)C)c2ccccc23)cc1C	-3.26%	4.57%	4.95%	3.46%	-1.6%
Cc1ccc2c(c1)C(=O)[C@]1(O)CCN(c3ccccc3)C1=N2	-2.71%	-0.376%	6.98%	-11.8%	-6.77%
CC1CCCCC1NC(=O)C1(C)Cn2c(cc3sccc32)C(=O)N1Cc1ccccc1 (stereo not given)	-5.91%	4.19%	-2.56%	-6.59%	-5.04%
Cc1ccc(C)c2c1NC(c1ccc(Br)cc1)C1CC=CC21 (stereo not given)	-9.11%	1.65%	-5.69%	-14.2%	-5.84%
O=c1[nH]c2ccc(S(=O)(=O)NCCc3ccc(Cl)cc3)cc2[nH]1	-1.43%	4.14%	-0.91%	-7.79%	-8.61%
COc1ccc(CCNC(=O)C(C)n2ccc3cc(S(=O)(=O)N4CCCC4)ccc32)cc1OC (stereo not given)	4.48%	1.84%	0.742%	4.33%	1.77%
C[C@H](C(=O)NCCN1CCOCC1)C1CC[C@@]2(C)Cc3sc(CS(=O)(=O)C(C)(C)C)nc3[C@@H](C)[C@@H]2[C@H]1O (stereo not given in full)	-5.88%	-6.32%	-6.9%	-15.5%	-15.4%
COc1ccc(Cl)c(Nc2nc3ccccc3nc2NS(=O)(=O)c2cccc(NC(=O)C(C)(C)N)c2)c1	-19.5%	-5.73%	-10.6%	-19%	-19.2%
COc1cccc(N2CCN(C(=O)CCc3nnc4n(Cc5ccccc5)c(=O)c5ccccc5n34)CC2)c1	-10.5%	4.19%	-1.84%	-8.63%	-9.66%
COc1ccccc1CNC(=O)C1(C)Cn2nc(-c3ccccc3)cc2C(=O)N1Cc1ccccc1 (stereo not given)	0.861%	2.41%	5.25%	4.08%	0.65%
CCCNC(=O)NS(=O)(=O)c1ccc(Cl)cc1	-0.426% and -6.74%	-2.3% and 4.37%	6.17% and -0.349%	-10.7% and -1.54%	0.857% and 11%
CCN(CC)C(C)CN1c2ccccc2Sc2ccccc21 (stereo not given)	-13.1%	-0.021%	-2.33%	-12.3%	0.969%

Structure (SMILES)	activity change, negative = inhibition [1]	activity change, negative = inhibition [2]	activity change, negative = inhibition [3]	activity change, negative = inhibition [4]	activity change, negative = inhibition [5]
O=C(O)Cc1cn([C@@H]2OC[C@@H](O[C@@H]3O[C@H](CO)[C@@H](O)[C@H](O)[C@H]3O)[C@H](O)[C@H]2O[C@@H]2O[C@H](CO)[C@@H](O)[C@H](O)[C@H]2O)c2ccccc12	4.67%	9.13%	8.49%	-4.02%	4.95%
CCc1ccc(NC(=O)Cn2nc3n(CC(C)C)c(=O)c4ccc(C(=O)NCC(C)C)cc4n3c2=O)cc1	4.49%	2.4%	7.52%	1.57%	5.65%
COc1ccc2cc3n(c2c1)CC(C)(C(=O)NC1CCCC1)N(Cc1ccc(F)cc1)C3=O (stereo not given)	-1.37%	4%	7.47%	8.91%	1.32%
C/C=C(/C)C(=O)OC1C=C2C3C(C)C(C)C(OC(=O)C(C)C(C)O)CC3(C)CCC2(C)C2(C)CC(OC(C)=O)C3C(C)(C)C(O)C(=O)CC3(C)C12 (stereo not given)	-8.39%	-5.78%	2.67%	-22.2%	-12.1%
COc1ccc(-c2nc(N3CCOCC3)c3sc(CN(C)c4ncc(C(=O)NO)cn4)cc3n2)cn1	-23.1%		-6.79%	18%	30.9%
Cc1cccc(Cn2nc3n(Cc4ccccc4)c(=O)c4ccc(C(=O)NC(C)C)cc4n3c2=O)c1	4.48%	0%	7.1%	0.318%	5.7%
COc1cc(-c2ncn(/C=C\C(=O)OC(C)C)n2)cc(C(F)(F)F)c1	-9.45%	-2%	7.53%	-20.3%	2.25%
CSc1cccc(N2C(=O)c3cc4ccccc4n3CC2(C)C(=O)NCCC(C)C)c1 (stereo not given)	-0.825%	4.21%	-1.81%	-1.34%	-4.5%
CC(C)CNC(=O)c1ccc2c(=O)n(CC(C)C)c3nn(Cc4ccc(Cl)cc4)c(=O)n3c2c1	5.52%	2.5%	8.25%	6.92%	6.33%
CCCCN1C(=O)c2cc(C(=O)Nc3ccc(CC)cc3)nn2CC1(C)C(=O)NC1CCCC1 (stereo not given)	5.37%	3.19%	-15.4%	6.18%	5.24%
CCn1c(=O)n(CC)c2cc(S(=O)(=O)N3CCN(c4cc(Cl)ccc4C)CC3)ccc21	1.4%	0%	3.37%	5.74%	1.86%
Cc1nc(N2CCC(NC(=O)c3cccnc3)CC2)cc(C(F)(F)F)n1	-0.346%	-1.1%	2.59%	-6.34%	1.93%
CCN1CCN(CCNC(=O)c2cc3n(n2)CC(C)(C(=O)NC2CCCCCC2)N(C)C3=O)CC1 (stereo not given)	6.33%	-1.19%	-6.55%	6.52%	-0.208%
NC(=O)c1cc2c(nc1CCC1COc3ccccc3O1)CCC2 (stereo not given)	-3.34%	-0.861%	-13.3%	-5.63%	-3.48%
COc1ccccc1CCNC(=O)Cn1ccc2cc(S(=O)(=O)N3CCCC3)ccc21	-2.18%	3.85%	-7.11%	-7.38%	-1.12%
CC(CO[C@@H]1O[C@H](COC(=O)/C=C/c2ccc(O)c(O)c2)[C@@H](O)[C@H](O)[C@H]1O)C1(O)COC(=O)C1 (stereo not given in full)	-1.75%	-9.01%	3.58%	-13.5%	-2.87%
CC(C)Cn1c(=O)c2ccc(C(=O)NC(C)C)cc2n2c(=O)n(CC(=O)Nc3cccc(Cl)c3)nc12	-2.6%	0.678%	-3.6%	-8.34%	-5.6%
Cn1ncnc1[C@H]1c2n[nH]c(=O)c3cc(F)cc(c23)N[C@@H]1c1ccc(F)cc1	-5.38% and -4.32%	-8.08%	-11.7% and 2.62%	-6.79% and -20.1%	10.7% and -14.6%
COc1ccc(C(O)C(C)OC2OC(CO)C(O)C(O)C2O)cc1 (stereo not given)	0%	7.72%	9.86%	-3.13%	5.11%
